# Source: the supplement of paper PMC12645437, “Orthogonal IMiD-Degron Pairs Induce Selective Protein Degradation in Cells” (ACS Chemical Biology, 2025)
# The list shows a part of the results.
# Target: no compound (DMSO)
# Assay: log2 fold change of degron read counts, EGFP-low vs EGFP+ sorted cells; higher = lower degron-EGFP level without compound (poor expression or instability)
# Conditions: compound: DMSO control; 18 h
# 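Also: jurkat cells carrying a lentiviral library of mutant zinc finger degrons fused to EGFP plus mCherry, mCherry+ cells FACS sorted, degron abundance counted by next-generation sequencing.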
row,Sequence,log2 fold change of degron read counts
1,LSCNQCGFACTQKGNLLRHIKL,0.533
2,FTCNQCGRMFTQKGNLLRHIKL,-1.13
3,FKCEVCGAHFTQKGNLLRHIKL,-1.17
4,FMCPICGHGFTQKGNLLRHIKL,-0.225
5,FECNQCGRHFTQKGNLLRHIKL,-0.856
6,FYCNVCGAQFTQKGNLLRHIKL,-0.291
7,FRCEQCGAIFTQKGNLLRHIKL,-1.39
8,FKCNQCGAWFTQKGNLLRHIKL,-0.405
9,FQCNQCGRTFTQKGNLLRHIKL,-1.56
10,FICNQCGRLFTQKGNLLRHIKL,0.437
11,FICDVCGARFTQKGNLLRHIKL,-1.25
12,FKCNVCGACFTQKGNLLRHIKL,-0.431
13,FCCEICGRCFTQKGNLLRHIKL,-1.51
14,FGCNVCGAHFTQKGNLLRHIKL,-0.759
15,FFCNQCGRSFTQKGNLLRHIKL,-0.121
16,FLCDQCGARFTQKGNLLRHIKL,-1.4
17,LKCNQCGFVCTQKGNLLRHIKL,0.113
18,FMCEQCGAKFTQKGNLLRHIKL,-2.21
19,FWCNICGADFTQKGNLLRHIKL,0.478
20,FMCEICGADFTQKGNLLRHIKL,-1.69
21,FVCDICGAIFTQKGNLLRHIKL,-0.511
22,FACPICGHAFTQKGNLLRHIKL,-0.555
23,FSCPICGRRFTQKGNLLRHIKL,-0.157
24,LLCPICGFDCTQKGNLLRHIKL,0.901
25,FFCPQCGANFTQKGNLLRHIKL,0.149

row,Sequence,log2 fold change of degron read counts
1,FFCNICGAMFTQKGNLLRHIKL,0.326
2,FICDICGAHFTQKGNLLRHIKL,-0.849
3,FTCNVCGAFFTQKGNLLRHIKL,0.459
4,FTCEQCGAFFTQKGNLLRHIKL,-1.11
5,FVCPICGHNFTQKGNLLRHIKL,-0.66
6,FNCDQCGAEFTQKGNLLRHIKL,-3.34
7,FICPICGAYFTQKGNLLRHIKL,1.1
8,FNCEICGRDFTQKGNLLRHIKL,-2.53
9,FRCDVCGALFTQKGNLLRHIKL,-0.972
10,FGCNQCGHKFTQKGNLLRHIKL,0.965
11,FRCNICGAVFTQKGNLLRHIKL,-0.398
12,FSCEQCGAIFTQKGNLLRHIKL,-1.31
13,FMCNICGALFTQKGNLLRHIKL,0.968
14,FECNQCGRLFTQKGNLLRHIKL,-0.966
15,FQCPICGRVFTQKGNLLRHIKL,0.352
16,FSCEVCGATFTQKGNLLRHIKL,-2.04
17,LCCPICGFICTQKGNLLRHIKL,1.47
18,LNCPICGFQCTQKGNLLRHIKL,0.586
19,LQCNQCGFRCTQKGNLLRHIKL,0.708
20,FYCEQCGARFTQKGNLLRHIKL,-0.645
21,FQCPVCGAHFTQKGNLLRHIKL,-0.0873
22,FTCPICGATFTQKGNLLRHIKL,-0.65
23,FDCDVCGACFTQKGNLLRHIKL,-1.43
24,FNCNICGAEFTQKGNLLRHIKL,-0.712
25,FTCEICGARFTQKGNLLRHIKL,-1.1
